About 2,200 (0.71%) of roughly 310,000 compounds showed an effect of 50% or more. The effect is printed as a negative number. The list shows a part of the results.
biological target: human ether-à-go-go-related gene (hERG) potassium channel (human, UniProt Q12809); experiment: primary screen, population patch clamp on CHO cells stably expressing hERG
Sequence (Q12809 whole entry, looked up): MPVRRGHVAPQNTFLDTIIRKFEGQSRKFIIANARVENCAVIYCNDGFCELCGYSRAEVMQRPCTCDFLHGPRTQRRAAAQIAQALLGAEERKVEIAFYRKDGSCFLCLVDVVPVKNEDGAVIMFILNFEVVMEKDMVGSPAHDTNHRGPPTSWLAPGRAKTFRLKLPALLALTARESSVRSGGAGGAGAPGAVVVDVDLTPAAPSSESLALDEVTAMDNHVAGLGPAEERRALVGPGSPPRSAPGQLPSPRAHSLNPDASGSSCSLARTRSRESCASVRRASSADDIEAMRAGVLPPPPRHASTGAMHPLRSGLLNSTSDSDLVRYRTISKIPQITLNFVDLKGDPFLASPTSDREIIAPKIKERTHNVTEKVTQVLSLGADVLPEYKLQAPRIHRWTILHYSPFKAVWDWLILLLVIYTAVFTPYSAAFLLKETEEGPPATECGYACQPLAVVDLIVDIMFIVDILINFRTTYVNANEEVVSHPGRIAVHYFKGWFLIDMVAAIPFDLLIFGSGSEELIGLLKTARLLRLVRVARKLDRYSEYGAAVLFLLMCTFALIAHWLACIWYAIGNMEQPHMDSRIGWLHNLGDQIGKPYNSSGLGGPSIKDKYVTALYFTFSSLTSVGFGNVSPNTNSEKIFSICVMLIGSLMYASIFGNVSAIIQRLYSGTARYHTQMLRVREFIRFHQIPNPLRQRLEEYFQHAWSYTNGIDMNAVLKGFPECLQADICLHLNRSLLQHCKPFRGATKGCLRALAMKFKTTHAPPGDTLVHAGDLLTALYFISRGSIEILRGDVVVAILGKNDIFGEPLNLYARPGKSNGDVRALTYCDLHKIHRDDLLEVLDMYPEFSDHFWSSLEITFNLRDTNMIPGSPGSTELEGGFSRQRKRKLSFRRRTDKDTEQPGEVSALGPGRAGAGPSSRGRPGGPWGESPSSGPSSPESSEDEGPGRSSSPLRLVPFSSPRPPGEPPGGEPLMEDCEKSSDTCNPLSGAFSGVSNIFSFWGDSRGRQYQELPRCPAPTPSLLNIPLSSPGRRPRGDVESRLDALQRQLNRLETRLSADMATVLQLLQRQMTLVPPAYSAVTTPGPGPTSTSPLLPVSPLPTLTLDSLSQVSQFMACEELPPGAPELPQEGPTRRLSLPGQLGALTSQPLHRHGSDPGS

Compared with `Cc1c(NC(=O)CSc2nnnn2Cc2ccccc2)c(=O)n(-c2ccccc2)n1C`, `CCc1nnc(NC(=O)CSc2nc3cccnc3n2Cc2ccccc2)s1` is higher in “hERG current change (%, negative = inhibition) at 1uM” value: -2.14% for the first, 11.2% for the second.

Compared with `Cc1ccc(CSCC(=O)N2CCN(Cc3ccc4c(c3)OCO4)CC2)cc1`, `COc1ccc(CNC(=O)CN(CCC(C)C)S(=O)(=O)c2ccc3c(c2)OCCO3)cc1` is higher in “hERG current change (%, negative = inhibition) at 1uM” value: -1.45% for the first, 7.23% for the second.

Going from `N#Cc1c(-c2ccc(F)cc2)noc1N` to `COc1nc(-c2ccccc2)cc(-c2ccc3c(c2)OCO3)c1C#N`, the “hERG current change (%, negative = inhibition) at 1uM” value falls from 9.55% to 7.64%.

Compared with `O=c1onc(-c2c(F)cccc2F)n1-c1ccccc1Cl`, `O=C1CC(N2CCN(S(=O)(=O)c3ccc([N+](=O)[O-])cc3)CC2)C(=O)N1c1ccccc1F` (centres unmarked) is lower in “hERG current change (%, negative = inhibition) at 1uM” value: 15.9% for the first, 1% for the second.

First: O=C(CN1C(=O)NC2(CCCCC2)C1=O)Oc1ccc2ccc(=O)oc2c1
Second: O=C(CN1C(=O)C2CCCCC2C1=O)Nc1nc2ccc(F)cc2s1 (centres unmarked)
The “hERG current change (%, negative = inhibition) at 1uM” value of the first is higher: 6.73% for the first, -12.1% for the second.

First: Cc1ccc(C(C)NC(=S)NCc2ccc(F)cc2)cc1C (centres unmarked)
Second: Fc1ccc(CNC(=S)NC2CCCCCC2)cc1
The “hERG current change (%, negative = inhibition) at 1uM” value of the first is lower: 3.82% for the first, 11.6% for the second.

Going from `CCOC(=O)c1c(C)n(C)c2ccc(OCC(O)Cn3c(C)nc4ccccc43)cc12` (centres unmarked) to `CCOC(=O)c1cc(-c2ccccc2)sc1NC(=O)CSc1nncs1`, the “hERG current change (%, negative = inhibition) at 1uM” value rises from -0.275% to 6.16%.

First: Cc1ccc(-c2cc3nc(-c4ccccc4)cc(N)n3n2)cc1
Second: O=C(Oc1ccc(-c2cnc3ccccc3n2)cc1)c1ccc(Cl)c([N+](=O)[O-])c1
The “hERG current change (%, negative = inhibition) at 1uM” value of the first is higher: 13.1% for the first, 12% for the second.

First: CC(=O)Nc1c(C)nn(-c2ccc([N+](=O)[O-])cc2)c1C
Second: Cc1nc(SCc2ccc([N+](=O)[O-])cc2)n[nH]1
The “hERG current change (%, negative = inhibition) at 1uM” value of the first is higher: 15.8% for the first, 8.78% for the second.

First: CCOc1ccc(NC(=O)C(C)SC(N)=O)cc1 (centres unmarked)
Second: CCC(Sc1nnnn1C)C(=O)Nc1ccc(C(C)=O)cc1 (centres unmarked)
The “hERG current change (%, negative = inhibition) at 1uM” value of the first is higher: 8.65% for the first, 1.87% for the second.

Compared with `O=C(O)CCCCCNC(=O)c1ccccc1`, `Cc1ccccc1C(=O)NCCNC(=O)c1ccco1` is lower in “hERG current change (%, negative = inhibition) at 1uM” value: 11.9% for the first, 11.5% for the second.

First: N#C/C(=C(\O)C(F)(F)F)c1nnc2n1CCCCC2
Second: C=CCNC(=O)C(C#N)c1nc2ccccc2nc1N1CCCCCC1 (centres unmarked)
The “hERG current change (%, negative = inhibition) at 1uM” value of the first is lower: 6.54% for the first, 9.74% for the second.

Going from `Cc1ccc(Cn2c(C)c3cnn(CC(=O)NC4CCCC4)c(=O)c3c2C)cc1` to `Cc1ccc(CCC2C3=C(CCCC3=O)OC3=C2C(=O)CCC3)cc1`, the “hERG current change (%, negative = inhibition) at 1uM” value falls from 14.8% to 12.6%.

Compared with `O=C(NC1CCN(C(=S)Nc2ccc(F)cc2)CC1)C1CCCCC1`, `O=C(NC1CC1)C1CCCN(C(=O)NC2CCCCC2)C1` (centres unmarked) is lower in “hERG current change (%, negative = inhibition) at 1uM” value: 12.7% for the first, 4.83% for the second.

Going from `Cc1ccc2nc(-c3ccccn3)c(NC3CCCC3)n2c1` to `COc1ccc(N(C(=O)c2snc(C(N)=O)c2N)C(C(=O)NC2CCCC2)c2ccc3ncccc3c2)cc1` (centres unmarked), the “hERG current change (%, negative = inhibition) at 1uM” value rises from 4.72% to 5.95%.

Going from `N#CC(c1ccc(O)cc1)c1ncc(C(F)(F)F)cc1Cl` (centres unmarked) to `CCOc1ccccc1C(=O)OCC(=O)Nc1ncc(C(F)(F)F)cc1Cl`, the “hERG current change (%, negative = inhibition) at 1uM” value falls from 10.4% to 6.74%.

Going from `CCNC(=O)N1CCCC(C(=O)c2ccc(-c3ccccc3)cc2)C1` (centres unmarked) to `CCCC/C=C/C(NC(=O)c1ccc(-c2ccccc2)cc1)c1ccccc1` (centres unmarked), the “hERG current change (%, negative = inhibition) at 1uM” value falls from 15.3% to 8.44%.

First: COC(=O)/C=C(\C)NC(=O)c1ccc(F)cc1
Second: COC(=O)c1sc(NC(=S)NC(=O)c2ccccc2F)nc1C
The “hERG current change (%, negative = inhibition) at 1uM” value of the first is higher: 13.7% for the first, 2.7% for the second.

Going from `Cc1ccccc1-n1c(SCc2cc(=O)n3ccccc3n2)nc2[nH]ncc2c1=O` to `Cc1cccnc1-n1c(CN2C(=O)c3ccccc3C2=O)nc2ccccc2c1=O`, the “hERG current change (%, negative = inhibition) at 1uM” value rises from -9.75% to 6.82%.

Going from `O=C(COc1ccccc1)NN1C(=O)CSC1=S` to `COC(=O)c1cn(C(=O)c2cccs2)c2ccccc12`, the “hERG current change (%, negative = inhibition) at 1uM” value falls from 12.9% to -3.75%.

Going from `COc1cc(OC)cc(C(=O)Nc2nc3ccccc3[nH]2)c1` to `COc1ccc(CN(C)C(=O)c2sccc2-c2ccccc2)c(OC)c1`, the “hERG current change (%, negative = inhibition) at 1uM” value falls from 13.4% to 12.3%.

Going from `CCc1nn(CC(=O)N2CC(C)CC(C)C2)c(=O)c2cccn12` (centres unmarked) to `O=C1NCCN(Cc2ccc(Cl)c(F)c2)C1CC(=O)N1CCc2ccccc2C1` (centres unmarked), the “hERG current change (%, negative = inhibition) at 1uM” value falls from 16.3% to 3.14%.

First: C=CCn1c(SCC(=O)N2CCN(c3ccccc3)CC2)nc2c([nH]c3ccccc32)c1=O
Second: O=C(c1nc[nH]c1C(=O)N1CCN(c2ccccc2)CC1)N1CCN(c2ccccc2)CC1
The “hERG current change (%, negative = inhibition) at 1uM” value of the first is higher: 14.1% for the first, 12.8% for the second.

Going from `CCOC(=O)C1CCCN(c2c(NCCC(C)C)c(=O)c2=O)C1` (centres unmarked) to `CCOC(=O)N1CCc2[nH]c3ccc(C)cc3c2C1`, the “hERG current change (%, negative = inhibition) at 1uM” value rises from -5.87% to 7.25%.

Going from `Cc1nc([N+](=O)[O-])cn1CC(O)c1ccc(F)cc1` (centres unmarked) to `O=C(CSc1nccn1Cc1ccco1)Nc1ccc(F)cc1`, the “hERG current change (%, negative = inhibition) at 1uM” value rises from 11.1% to 12.2%.

First: CC1CCCN(C(=O)C23CCC(C)(C(=O)C2)C3(C)C)C1 (centres unmarked)
Second: COc1ccc(C(=O)OC(C)C(=O)NC2CCCCC2C)cc1S(=O)(=O)N1CCOCC1 (centres unmarked)
The “hERG current change (%, negative = inhibition) at 1uM” value of the first is lower: -5.38% for the first, 1.51% for the second.

Going from `Cc1cc(C)n(CCN(C)c2nc3nonc3nc2N2CCCCC2)n1` to `Cc1cc(NC(=O)c2nn(C)c(C)c2Br)no1`, the “hERG current change (%, negative = inhibition) at 1uM” value falls from 18.2% to 9.71%.

Compared with `COc1ccc(N2C(=O)CCC(C(=O)Nc3cccc(C)n3)C2c2ccc(OC)c(OC)c2)cc1` (centres unmarked), `COc1ccc(-c2c3c(=O)n(C)c(=O)n(C)c3cn2-c2cc(OC)ccc2OC)cc1` is lower in “hERG current change (%, negative = inhibition) at 1uM” value: 4.99% for the first, -0.058% for the second.

First: NC(=O)c1ccsc1NC(=O)CCS(=O)(=O)c1ccc(F)cc1
Second: NC(=O)c1ccccc1NC(=O)CCN1C(=O)c2ccccc2C1=O
The “hERG current change (%, negative = inhibition) at 1uM” value of the first is higher: 9.5% for the first, 8.94% for the second.

Compared with `CCN(c1ccccc1)S(=O)(=O)c1ccc(NC(=S)NC(=O)c2ccc(Br)o2)cc1`, `COc1ccccc1C(=O)NCCC(=O)Nc1ccc(S(=O)(=O)Nc2ncccn2)cc1` is lower in “hERG current change (%, negative = inhibition) at 1uM” value: 2.46% for the first, 2.2% for the second.

Compared with `Cc1cc(C)cc(-n2cc[nH]c2=S)c1`, `S=c1cnc2ccccc2[nH]1` is higher in “hERG current change (%, negative = inhibition) at 1uM” value: 3.19% for the first, 12.6% for the second.

Compared with `Clc1cc(Br)ccc1NCc1cccnc1`, `CC(/C=N/n1c(-c2cccnc2)n[nH]c1=S)=C\c1ccco1` is higher in “hERG current change (%, negative = inhibition) at 1uM” value: 9.44% for the first, 9.91% for the second.

Compared with `CCN1C(=O)c2cccc3c(S(=O)(=O)NCCc4c[nH]c5ccccc45)ccc1c23`, `COc1ccc(S(=O)(=O)NCCC(=O)NC(C)c2ccccc2)cc1` (centres unmarked) is higher in “hERG current change (%, negative = inhibition) at 1uM” value: -2.7% for the first, 1.22% for the second.

Going from `O=C(CCCN1C(=O)C2CC=CCC2C1=O)Nc1ccccc1F` (centres unmarked) to `CC(=O)NC1C(=O)N(CCc2ccccc2)c2ccccc21` (centres unmarked), the “hERG current change (%, negative = inhibition) at 1uM” value rises from -0.904% to 7.87%.

First: N#CNC(=Nc1cccc(F)c1)SCc1ccccc1
Second: CCOc1ccc(NC(=O)Cn2cc(C(=O)c3ccco3)c3ccccc32)cc1
The “hERG current change (%, negative = inhibition) at 1uM” value of the first is higher: 11.1% for the first, -1.85% for the second.

Going from `CC1CN(C(NC(=O)C(C)(C)C)C(Cl)(Cl)Cl)CC(C)O1` (centres unmarked) to `CCCCNC(=O)[C@H]1C[C@H]1[C@@H](O)[C@H](CO)NC(=O)[C@H](CC(C)C)NC(=O)OC(C)(C)C`, the “hERG current change (%, negative = inhibition) at 1uM” value rises from -4.08% to 10.5%.

First: CC1CCCCC1NC(=O)CN(C)S(=O)(=O)c1ccc2c(c1)CCC(=O)N2 (centres unmarked)
Second: Cc1ccc(OCCC(=O)OCC(=O)Nc2cc(S(=O)(=O)N(C)C)ccc2C)cc1
The “hERG current change (%, negative = inhibition) at 1uM” value of the first is higher: 15.2% for the first, 12.1% for the second.

Going from `FC(F)Oc1ccc(NC(=S)NC23CC4CC(CC(C4)C2)C3)cc1` to `CC1CC(C)(C)N(C(=O)CSc2ccc(-c3ccc(F)cc3)nn2)c2ccccc21` (centres unmarked), the “hERG current change (%, negative = inhibition) at 1uM” value falls from 10.6% to 1.38%.

First: C=CCN(c1cccc(C(F)(F)F)c1)S(=O)(=O)c1cccc(C(=O)OCC(=O)NC)c1
Second: Cc1ccc(SCCNC(=O)c2ccc(C)c(S(=O)(=O)Nc3ccccc3C)c2)cc1
The “hERG current change (%, negative = inhibition) at 1uM” value of the first is higher: 2.89% for the first, -0.142% for the second.

First: COc1cccc(-n2c(CN3CCN(c4ccccc4)CC3)nc3ccc([N+](=O)[O-])cc3c2=O)c1
Second: CCCN1CCN(c2ccc([N+](=O)[O-])cc2C#N)CC1
The “hERG current change (%, negative = inhibition) at 1uM” value of the first is higher: 9.3% for the first, -57.8% for the second.

Compared with `COC(=O)Cc1n[nH]c(=S)[nH]c1=O`, `COc1cc(O)c(CCO)c2c1C(=O)C[C@@H](C)O2` is lower in “hERG current change (%, negative = inhibition) at 1uM” value: 17.5% for the first, -14.3% for the second.

First: CCN(CC)CCNc1nc(-c2ccco2)c2c(c1C#N)CC(C)(C)OC2
Second: CCN(CC)S(=O)(=O)c1cc(C(=O)N=c2sccn2C)ccc1OC
The “hERG current change (%, negative = inhibition) at 1uM” value of the first is lower: -39.5% for the first, 4.59% for the second.

Compared with `Cc1ccc2[nH]c(=O)c(CN(Cc3cccs3)Cc3nnnn3CC3CCCO3)cc2c1` (centres unmarked), `CCCCn1c(-c2ccc(F)c(F)c2)nc2cc3[nH]c(=O)c(C(C)C)nc3cc21` is higher in “hERG current change (%, negative = inhibition) at 1uM” value: -0.0725% for the first, 11.3% for the second.

First: Cc1csc2ncc(C(=O)NCc3ccco3)c(=O)n12
Second: CCn1nnc(NC(=O)c2ccc(-c3ccccc3[N+](=O)[O-])o2)n1
The “hERG current change (%, negative = inhibition) at 1uM” value of the first is lower: 5.98% for the first, 8.96% for the second.

For `CC(C)c1nnc(NC(=O)CCC(=O)NCC2CCCO2)s1` (centres unmarked), the “hERG current change (%, negative = inhibition) at 1uM” value was 5.75%.
